Experimental data: PubChem BioAssay AID686978 (National Center for Advancing Translational Sciences (NCATS), 2013)
In all, about 420,000 compounds went through this assay and about 64,000 (15%) were called active. The inconclusive results got no clear call from the source; some entries with a clear call stand among them for comparison. Calls follow the shape of the dose curve; as a rule, active = well fitted inhibition curve with a large enough effect; inconclusive = small, poorly fitted or top-dose-only effect; inactive = flat fitted curve, though single readings scatter. No potency is given beside an inconclusive call; the fits are too rough.

assay: qHTS for Inhibitors of human tyrosyl-DNA phosphodiesterase 1 (TDP1): qHTS in cells in absence of CPT; settings: DT40 Tdp1-/- hTDP1 cells, no CPT, ATP luminescence, 48 h; activity change, negative = growth inhibition: at 46.2 µM (top of the series) unless noted; also: nearly all actives have a fitted effect of over 55% in size
How it was run: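 Growth of hTDP1-complemented DT40 Tdp1-knockout cells is measured by ATP luminescence after at least 48 hr compound exposure at 37 °C, with DMSO substituting for the 20 nM CPT used in the parallel screen.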
% is scaled to controls: 0 for no effect and ±100 for the full control effect; potency is read from the fitted curve at half-maximal effect; tags tell the direction and shape of the fitted curve.

Question: For `O=C(CSCc1ccccc1)Nc1cccc(F)c1`, which Potency is on record?
Answer: inconclusive [inhibitor, single point]

Question: For `CCCOc1ccc(C2C(C(=O)/C=C/c3ccco3)=C(O)C(=O)N2CCN2CCOCC2)cc1OC` (stereo not drawn), which Potency is on record?
Answer: inactive

Question: Which Potency does the source give for `Cc1nc2ccccn2c(=O)c1NC(=O)c1ccc(F)c(F)c1` here?
Answer: inactive

Question: Which Potency does the source give for `Cc1cccc(NC(=O)C2CCCN2S(=O)(=O)c2ccc3nc(-c4ccccc4)[nH]c3c2)c1` (stereo not drawn) here?
Answer: active: 18.4 µM

Question: Which Potency does the source give for `COc1cc(/C=C2/SC(=S)N(Cc3ccccc3)C2=O)ccc1OS(C)(=O)=O` here?
Answer: inconclusive [inhibitor, single point]

Question: Which Potency does the source give for `O=C(Nc1cc(C(F)(F)F)ccc1Cl)c1cc2nc3c(c(C(F)(F)F)n2n1)CCCC3` here?
Answer: inconclusive [inhibitor, partial curve]

Question: For `CN(CC(=O)NC(=O)NCc1ccccc1)CC(=O)Nc1ccc(Cl)c(Cl)c1`, which Potency is on record?
Answer: inconclusive [inhibitor, single point]

Question: For `COc1cc(Cl)c(NC(=O)c2cc3ccccn3n2)c(OC)c1`, which Potency is on record?
Answer: active: 20.6 µM

Question: Which Potency does the source give for `CCOC(=O)/C(Sc1nc(-c2ccccc2)cc(-c2ccccc2)c1C#N)=C(\C)O` here?
Answer: active: 29.1 µM

Question: For `Cc1cc(C[n+]2cc(Cl)ccc2N)c2ncccc2c1`, which Potency is on record?
Answer: inconclusive [inhibitor, partial curve, poor fit]

Question: With `CCCn1cnc2cc(NC(=O)c3cc(OC)c(OC)c(OC)c3)ccc21` as the compound, how does the Potency read?
Answer: inconclusive [inhibitor, single point]

Question: Which Potency does the source give for `COc1ccc(CCNC(=O)c2ccc3c(c2)nc2n3CCCCC2)cc1OC` here?
Answer: inconclusive [inhibitor, partial curve]

Question: For `COCCNC(=S)N1CCC(c2nc(-c3ccc(N(C)C)cc3)no2)CC1`, which Potency is on record?
Answer: inconclusive [inhibitor, partial curve]

Question: For `CCc1ccc(-c2nc(CS(=O)CC(=O)NCc3ccc(F)cc3)c(C)o2)cc1` (stereo not drawn), which Potency is on record?
Answer: inconclusive [inhibitor, single point]

Question: For `O=C(N/N=C1\C2CN3CCN(C2)CC1(c1ccccc1)C3)Nc1ccccc1`, which Potency is on record?
Answer: inactive

Question: Which Potency does the source give for `CCN(CC)C(=O)c1cccc(-c2csc(C(C)(O)c3cccc(F)c3)n2)c1` (stereo not drawn) here?
Answer: active: 23.1 µM

Question: For `Cc1ccc(Cl)cc1NC(=O)CN1C(=O)c2ccccc2Sc2ncccc21`, which Potency is on record?
Answer: inconclusive [inhibitor, single point]

Question: For `O=C1C=C(c2cc3ccccc3s2)C[C@@H](c2ccc3c(c2)OCO3)C1`, which Potency is on record?
Answer: inconclusive [inhibitor, single point]

Question: Which Potency does the source give for `Cc1cc(C(=O)CSc2nnc(Nc3ccccc3)s2)c(C)n1CC1CCCO1` (stereo not drawn) here?
Answer: inconclusive [inhibitor, single point]

Question: Which Potency does the source give for `COc1ccc(/C=C(\C#N)C(=O)NC(C)c2ccccc2)cc1O` (stereo not drawn) here?
Answer: inconclusive [inhibitor, single point]

Question: With `Cc1ccc(S(=O)(=O)N2CCN(C(=O)COC(=O)/C=C/c3ccccc3)CC2)c(C)c1` as the compound, how does the Potency read?
Answer: inactive

Question: With `Fc1cccc(CN2CCN3CCCC3C2C2CCCCC2)c1` (stereo not drawn) as the compound, how does the Potency read?
Answer: inconclusive [inhibitor, single point]

Question: For `O=C(c1cccc(Cl)c1)N1CCCC(c2ccc(Cl)cc2)=N1`, which Potency is on record?
Answer: inconclusive [inhibitor, single point]

Question: With `CCC1SC2=NC(C)=C(C(=O)OCCOC)C(c3ccc(C(=O)OC)cc3)N2C1=O` (stereo not drawn) as the compound, how does the Potency read?
Answer: inactive

Question: With `Cc1cnc(CNc2cc(-c3cccnc3)ncn2)cn1` as the compound, how does the Potency read?
Answer: inconclusive [inhibitor, single point]

Question: Which Potency does the source give for `Cc1cc(C2=NNC(=NCCc3ccccc3)SC2)c(C)n1-c1c(C)n(C)n(-c2ccccc2)c1=O` here?
Answer: inactive

Question: With `Cc1nc(-c2ccccn2)nc(SCC(=O)c2ccc(F)cc2)c1Cl` as the compound, how does the Potency read?
Answer: inconclusive [inhibitor, single point]

Question: With `CC(C)C(NS(=O)(=O)c1c(Cl)cccc1Cl)C(=O)OCC(=O)c1c[nH]c2ccccc12` (stereo not drawn) as the compound, how does the Potency read?
Answer: inconclusive [inhibitor, single point]

Question: For `COc1cccc(-c2cccc(NC(=O)C3CCN(C4CCC4)CC3)c2)c1`, which Potency is on record?
Answer: inactive

Question: For `CCCCNC(=S)N/N=C/c1ccc(OCC(=O)Nc2c(C)cc(C)cc2C)c(OC)c1`, which activity change, negative = growth inhibition is on record?
Answer: inconclusive: -30.6% [inhibitor]

Question: For `Cc1ncc(CSc2ccc(Cl)cc2)c(CO)c1O`, which Potency is on record?
Answer: inconclusive [inhibitor, partial curve, poor fit]

Question: Which Potency does the source give for `CC(=O)c1ccc(NC(=O)c2nc(-c3ccccc3)n(-c3ccc(C)cc3)n2)cc1` here?
Answer: active: 18.4 µM

Question: For `CCCN(CCC)CCNc1c(N2CCN(C(=O)OCC)CC2)c(=O)c1=O`, which Potency is on record?
Answer: inactive

Question: With `O=C(NCCc1nccs1)C1CCC(=O)N(CCc2ccc(Cl)cc2)C1` (stereo not drawn) as the compound, how does the Potency read?
Answer: inactive

Question: Which Potency does the source give for `CCOC(=O)C/C(N)=N/N(C)c1ncc(C(F)(F)F)cc1Cl` here?
Answer: inconclusive [inhibitor, single point]

Question: Which Potency does the source give for `CC(C)CCN1CCC(n2nccc2NC(=O)C2CCOC2)CC1` (stereo not drawn) here?
Answer: inactive

Question: Which Potency does the source give for `Nc1[nH]c(C(=O)c2ccccc2)c(-c2cccnc2)c1C(=O)NCCc1ccc(Cl)cc1Cl` here?
Answer: inconclusive [inhibitor, single point]

Question: Which Potency does the source give for `O=S(=O)(c1ccc2nc(-c3ccccc3)[nH]c2c1)N1CCN(c2cccc(Cl)c2)CC1` here?
Answer: inconclusive [inhibitor, partial curve, poor fit]

Question: With `Clc1ccc(-c2nc3c4ccccc4ccn3c2Cc2cccc(Cl)c2)cc1` as the compound, how does the Potency read?
Answer: active: 7.31 µM

Question: For `S=c1[nH]nc(-c2ccco2)n1/N=C/C=C/c1ccccc1`, which Potency is on record?
Answer: inconclusive [inhibitor, partial curve, poor fit]

Question: Which Potency does the source give for `O=C1C=CC(n2cc(F)c(=O)[nH]c2=O)O1` (stereo not drawn) here?
Answer: inconclusive [inhibitor, single point]

Question: With `Cc1ccccc1C(=O)NC1CC(C)(C)NC(C)(C)C1` as the compound, how does the Potency read?
Answer: inactive

Question: With `COc1ccccc1NC(=O)Cn1c(=O)oc2cc(S(=O)(=O)NCc3ccccc3)ccc21` as the compound, how does the Potency read?
Answer: inconclusive [inhibitor, partial curve]

Question: Which Potency does the source give for `O=C(Nc1cccc(Cl)c1)C1CCCCC1` here?
Answer: inconclusive [inhibitor, single point]

Question: For `Clc1ccc2nc(-c3ccc(N4CCOCC4)cc3)c(Nc3ccccc3)n2c1`, which Potency is on record?
Answer: inconclusive [inhibitor, single point]

Question: For `CC1(CC(=O)N/N=C/c2ccc(-c3cccc(C(F)(F)F)c3)o2)OCCO1`, which Potency is on record?
Answer: inconclusive [inhibitor, single point]

Question: With `CCCCCCNC(=O)CCCCCNS(=O)(=O)c1ccc(OC)cc1` as the compound, how does the Potency read?
Answer: inconclusive [inhibitor, single point]

Question: For `O=C(NCc1cccc(Cl)c1)C1CCCN(c2nn3cc(-c4ccc(F)cc4)nc3s2)C1` (stereo not drawn), which Potency is on record?
Answer: active: 23.1 µM

Question: With `COc1ccc(Nc2nc(N)c([N+](=O)[O-])c(N3CCN(C)CC3)n2)cc1` as the compound, how does the Potency read?
Answer: inconclusive [inhibitor, single point]

Question: Which Potency does the source give for `O=S(=O)(c1ccccc1)c1nc(-c2ccco2)oc1Nc1ccccc1` here?
Answer: inconclusive [inhibitor, single point]

Question: With `O=C1N(c2ccccc2)C(c2ccccc2)C12CCCCC2` (stereo not drawn) as the compound, how does the Potency read?
Answer: inconclusive [inhibitor, single point]

Question: For `COc1ccc(-c2csc(NC3CCCCC3)n2)c(OC)c1`, which Potency is on record?
Answer: inconclusive [inhibitor, single point]

Question: Which Potency does the source give for `O=C(Cc1ccccc1[N+](=O)[O-])NCc1ccc(Cl)cc1Cl` here?
Answer: inconclusive [inhibitor, single point]

Question: For `COC(=O)c1ccccc1NC(=O)CCC(=O)N1CC(C)Oc2ccc(C)cc21` (stereo not drawn), which Potency is on record?
Answer: inconclusive [inhibitor, single point]

Question: With `Cc1nc2sc(C(c3ccccc3)N3CCOCC3)c(O)n2n1` (stereo not drawn) as the compound, how does the Potency read?
Answer: inactive

Question: Which Potency does the source give for `CCOc1ccc(CNc2cc(C)nc3nc(-c4cccc(C)c4)nn23)cc1OC` here?
Answer: active: 18.4 µM

Question: For `CCOc1cc(C)nc(N2CCC(C(=O)NCC3CCCO3)CC2)n1` (stereo not drawn), which Potency is on record?
Answer: inactive

Question: For `Cc1cccc(NC(=O)c2ccc3oc(=O)c(S(=O)(=O)c4ccc(F)cc4)cc3c2)c1C`, which Potency is on record?
Answer: inconclusive [inhibitor, single point]

Question: Which Potency does the source give for `CCc1ccccc1N(C)C(=O)c1nn(-c2ccc(OC)cc2)c(=O)c2c1c1ccccc1n2C` here?
Answer: inconclusive [inhibitor, full curve, poor fit]

Question: Which Potency does the source give for `Clc1nc(NCCc2ccccc2)c2cn[nH]c2n1` here?
Answer: inactive

Question: Which Potency does the source give for `CC(=O)c1ccc(N=Nc2c(C)[nH][nH]c2=O)cc1` here?
Answer: inconclusive [inhibitor, partial curve, poor fit]

Question: With `Cn1c(=O)c2[nH]c(NN=Cc3ccc(Br)cc3)nc2n(C)c1=O` as the compound, how does the Potency read?
Answer: inconclusive [inhibitor, single point]

Question: For `O=C(O)C1C2C=CC(C2)C1C(=O)Nc1ccc(Cl)c(Cl)c1` (stereo not drawn), which Potency is on record?
Answer: inconclusive [inhibitor, single point]

Question: For `O=C1c2ccccc2CCC1CNCCc1ccc(O)cc1` (stereo not drawn), which Potency is on record?
Answer: active: 20.6 µM

Question: With `CCOc1ccc(C(=O)CN2C(=O)NC3(CCCCCC3)C2=O)cc1` as the compound, how does the Potency read?
Answer: inconclusive [inhibitor, single point]

Question: With `COc1ccc(C(C(=O)NC(C)(C)C)N(Cc2ccco2)C(=O)CCC(=O)Nc2cc(C)on2)cc1` (stereo not drawn) as the compound, how does the activity change, negative = growth inhibition read?
Answer: inconclusive: -30.5% [inhibitor]

Question: Which Potency does the source give for `CCOc1ccc(N2C(=O)/C(=C\c3ccc(O)c(OC)c3)S(=O)(=O)C2c2cccc([N+](=O)[O-])c2)cc1` (stereo not drawn) here?
Answer: inconclusive [inhibitor, partial curve]

Question: For `C=CCN(CC=C)c1ncnc2[nH]ncc12`, which Potency is on record?
Answer: inconclusive [inhibitor, partial curve]
